# Results taken from the supplement of paper PMC8728848.
# This is one part of the list.
# B1: CIH1 (Colletotrichum higginsianum) (protein)
# chain: LPQATPTTPTPTSASAAATISATSSPTCSPGPVIDYTVVSGDTLTIISQRFSSGICNIADASGITNPNFLSLGQVLQVPTYVCTPDNTSCLAKEGSDTCVEGGPATHTIVAGDTFFLVAQSLGLDVNALLAANEGVDPLLLQIGDVINIPVC
# Assays:
# Assay in all cases: glycan array binding signal (z-score within array); higher = stronger binding
# Settings in all cases: glycan notation: IUPAC condensed, linker removed
# [1] = target: Neu5Ac(a2-6)Gal(b1-4)GlcNAc(b1-2)Man(a1-3)[GlcNAc(b1-2)Man(b1-4)GlcNAc(b1-2)Man(a1-6)]Man(b1-4)GlcNAc(b1-4)GlcNAc
# Summary of the method: (§1)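 Glycan array data were curated from 3228 arrays in the Consortium for Functional Glycomics database and kept only where the protein sequence was available. Glycan names were converted to IUPAC-condensed notation, and columns mapping to the same glycan were averaged. The binding signal is a within-array Z-score, averaged across arrays of the same protein sequence at different concentrations or buffers and across linkers. Negative Z-scores can be read as non-binding.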
# [2] = target: Neu5Ac(a2-6)Gal(b1-4)GlcNAc(b1-2)Man(a1-3)[Man(a1-6)]Man(b1-4)GlcNAc(b1-4)GlcNAc
# Summary of the method: as §1
# [3] = target: Neu5Ac(a2-6)Gal(b1-4)GlcNAc(b1-2)Man(a1-3)[Neu5Ac(a2-6)Gal(b1-4)GlcNAc(b1-2)Man(a1-6)]Man(b1-4)GlcNAc(b1-4)GlcNAc
# Summary of the method: as §1
# [4] = target: Neu5Ac(a2-6)Gal(b1-4)GlcNAc(b1-2)Man(a1-3)[Neu5Ac(a2-6)Gal(b1-4)GlcNAc(b1-2)Man(a1-6)]Man(b1-4)GlcNAc(b1-4)[Fuc(a1-6)]GlcNAc
# Summary of the method: as §1
# [5] = target: Neu5Ac(a2-6)Gal(b1-4)GlcNAc(b1-2)Man(a1-6)Man(b1-4)GlcNAc(b1-4)GlcNAc
# Summary of the method: as §1
# [6] = target: Neu5Ac(a2-6)Gal(b1-4)GlcNAc(b1-2)Man(a1-6)[Gal(b1-4)GlcNAc(b1-2)Man(a1-3)]Man(b1-4)GlcNAc(b1-4)GlcNAc
# Summary of the method: as §1
# [7] = target: Neu5Ac(a2-6)Gal(b1-4)GlcNAc(b1-2)Man(a1-6)[GlcNAc(b1-2)Man(a1-3)]Man(b1-4)GlcNAc(b1-4)GlcNAc
# Summary of the method: as §1
# [8] = target: Neu5Ac(a2-6)Gal(b1-4)GlcNAc(b1-2)Man(a1-6)[Man(a1-3)]Man(b1-4)GlcNAc(b1-4)GlcNAc
# Summary of the method: as §1
# [9] = target: Neu5Ac(a2-6)Gal(b1-4)GlcNAc(b1-3)Gal(b1-3)GlcNAc
# Summary of the method: as §1
# [10] = target: Neu5Ac(a2-6)Gal(b1-4)GlcNAc(b1-3)Gal(b1-4)GlcNAc
# Summary of the method: as §1
# [11] = target: Neu5Ac(a2-6)Gal(b1-4)GlcNAc(b1-3)Gal(b1-4)GlcNAc(b1-3)Gal(b1-4)GlcNAc
# Summary of the method: as §1
# [12] = target: Neu5Ac(a2-6)Gal(b1-4)GlcNAc(b1-3)Gal(b1-4)[Fuc(a1-3)]GlcNAc(b1-3)Gal(b1-4)[Fuc(a1-3)]GlcNAc
# Summary of the method: as §1
# [13] = target: Neu5Ac(a2-6)Gal(b1-4)GlcNAc(b1-3)GalNAc
# Summary of the method: as §1
# [14] = target: Neu5Ac(a2-6)Gal(b1-4)GlcNAc(b1-3)[Neu5Ac(a2-6)Gal(b1-4)GlcNAc(b1-6)]GalNAc
# Summary of the method: as §1
# [15] = target: Neu5Ac(a2-6)Gal(b1-4)GlcNAc(b1-6)GalNAc
# Summary of the method: as §1
# [16] = target: Neu5Ac(a2-6)Gal(b1-4)GlcNAc(b1-6)[Gal(b1-3)GlcNAc(b1-3)]Gal(b1-4)Glc
# Summary of the method: as §1
# [17] = target: Neu5Ac(a2-6)Gal(b1-4)GlcNAc6S
# Summary of the method: as §1
# Neu5Ac(a2-6)GalNAc = target: Neu5Ac(a2-6)GalNAc
# Summary of the method: as §1
# [18] = target: Neu5Ac(a2-6)GalNAc(b1-4)GlcNAc
# Summary of the method: as §1
# [19] = target: Neu5Ac(a2-6)GalNAc(b1-4)GlcNAc6S
# Summary of the method: as §1
# [20] = target: Neu5Ac(a2-6)GlcNAc(b1-4)GlcNAc
# Summary of the method: as §1
# [21] = target: Neu5Ac(a2-6)GlcNAc(b1-4)GlcNAc(b1-4)GlcNAc
# Summary of the method: as §1
# Neu5Ac(a2-8)Neu5Ac = target: Neu5Ac(a2-8)Neu5Ac
# Summary of the method: as §1
# [22] = target: Neu5Ac(a2-8)Neu5Ac(a2-3)Gal(b1-3)GalNAc(b1-4)[Neu5Ac(a2-8)Neu5Ac(a2-3)]Gal(b1-4)Glc
# Summary of the method: as §1
# [23] = target: Neu5Ac(a2-8)Neu5Ac(a2-3)Gal(b1-4)Glc
# Summary of the method: as §1
# [24] = target: Neu5Ac(a2-8)Neu5Ac(a2-3)[Gal(b1-3)GalNAc(b1-4)]Gal(b1-4)Glc
# Summary of the method: as §1
# [25] = target: Neu5Ac(a2-8)Neu5Ac(a2-3)[GalNAc(b1-4)]Gal(b1-4)Glc
# Summary of the method: as §1
# [26] = target: Neu5Ac(a2-8)Neu5Ac(a2-8)Neu5Ac
# Summary of the method: as §1
# [27] = target: Neu5Ac(a2-8)Neu5Ac(a2-8)Neu5Ac(a2-3)Gal(b1-4)Glc
# Summary of the method: as §1
# [28] = target: Neu5Ac(a2-8)Neu5Ac(a2-8)Neu5Ac(a2-3)[GalNAc(b1-4)]Gal(b1-4)Glc
# Summary of the method: as §1
# [29] = target: Neu5Ac(a2-8)Neu5Ac(a2-8)Neu5Ac(a2-8)Neu5Ac(a2-3)[GalNAc(b1-4)]Gal(b1-4)Glc
# Summary of the method: as §1
# [30] = target: Neu5Ac(b2-6)Gal(b1-4)GlcNAc
# Summary of the method: as §1
# Neu5Ac(b2-6)GalNAc = target: Neu5Ac(b2-6)GalNAc
# Summary of the method: as §1
# [31] = target: Neu5Ac9Ac(a2-3)Gal(b1-3)GlcNAc
# Summary of the method: as §1
# [32] = target: Neu5Ac9Ac(a2-3)Gal(b1-4)GlcNAc
# Summary of the method: as §1
# [33] = target: Neu5Ac9Ac(a2-6)Gal(b1-4)GlcNAc
# Summary of the method: as §1
# [34] = target: Neu5Gc(a2-3)Gal(b1-3)GlcNAc
# Summary of the method: as §1
# [35] = target: Neu5Gc(a2-3)Gal(b1-3)[Fuc(a1-4)]GlcNAc
# Summary of the method: as §1
# Neu5Gc(a2-3)Gal(b1-4)Glc = target: Neu5Gc(a2-3)Gal(b1-4)Glc
# Summary of the method: as §1
# [36] = target: Neu5Gc(a2-3)Gal(b1-4)GlcNAc
# Summary of the method: as §1
# [37] = target: Neu5Gc(a2-3)Gal(b1-4)[Fuc(a1-3)]GlcNAc
# Summary of the method: as §1
# [38] = target: Neu5Gc(a2-6)Gal(b1-4)GlcNAc
# Summary of the method: as §1
# Neu5Gc(a2-6)GalNAc = target: Neu5Gc(a2-6)GalNAc
# Summary of the method: as §1
# [39] = target: Neu5Gc(b2-6)Gal(b1-4)GlcNAc
# Summary of the method: as §1
binder,measurement,setting,value
B1,glycan array binding signal (z-score),[1],-0.079
same,glycan array binding signal (z-score),[2],-0.06
same,glycan array binding signal (z-score),[3],-0.072
same,glycan array binding signal (z-score),[4],-0.086
same,glycan array binding signal (z-score),[5],-0.066
same,glycan array binding signal (z-score),[6],-0.069
same,glycan array binding signal (z-score),[7],-0.084
same,glycan array binding signal (z-score),[8],-0.096
same,glycan array binding signal (z-score),[9],-0.061
same,glycan array binding signal (z-score),[10],-0.075
same,glycan array binding signal (z-score),[11],-0.082
same,glycan array binding signal (z-score),[12],-0.064
same,glycan array binding signal (z-score),[13],-0.075
same,glycan array binding signal (z-score),[14],-0.085
same,glycan array binding signal (z-score),[15],-0.056
same,glycan array binding signal (z-score),[16],-0.072
same,glycan array binding signal (z-score),[17],-0.074
same,glycan array binding signal (z-score),Neu5Ac(a2-6)GalNAc,-0.07
same,glycan array binding signal (z-score),[18],-0.081
same,glycan array binding signal (z-score),[19],-0.079
same,glycan array binding signal (z-score),[20],-0.05
same,glycan array binding signal (z-score),[21],-0.004
same,glycan array binding signal (z-score),Neu5Ac(a2-8)Neu5Ac,-0.072
same,glycan array binding signal (z-score),[22],-0.07
same,glycan array binding signal (z-score),[23],-0.069
same,glycan array binding signal (z-score),[24],-0.088
same,glycan array binding signal (z-score),[25],-0.075
same,glycan array binding signal (z-score),[26],-0.065
same,glycan array binding signal (z-score),[27],-0.063
same,glycan array binding signal (z-score),[28],-0.048
same,glycan array binding signal (z-score),[29],-0.082
same,glycan array binding signal (z-score),[30],-0.051
same,glycan array binding signal (z-score),Neu5Ac(b2-6)GalNAc,-0.048
same,glycan array binding signal (z-score),[31],-0.065
same,glycan array binding signal (z-score),[32],-0.061
same,glycan array binding signal (z-score),[33],-0.072
same,glycan array binding signal (z-score),[34],-0.077
same,glycan array binding signal (z-score),[35],-0.072
same,glycan array binding signal (z-score),Neu5Gc(a2-3)Gal(b1-4)Glc,-0.081
same,glycan array binding signal (z-score),[36],-0.063
same,glycan array binding signal (z-score),[37],-0.085
same,glycan array binding signal (z-score),[38],-0.083
same,glycan array binding signal (z-score),Neu5Gc(a2-6)GalNAc,-0.056
same,glycan array binding signal (z-score),[39],-0.075
